We go through 97 compounds from PubChem BioAssay AID485344 (National Center for Advancing Translational Sciences (NCATS), 2010).

Values joined by “and” are separate entries in the source; they are usually repeats but may differ in a detail not shown here. Identical values can stand only once. Hit rate of the full screen: of about 340,000 compounds, about 6,900 (2%) were called active. Cut-off read from the data, not from the text of the source: active = inhibition above about 30%; inactive = below that, where a call was filed. The list shows a part of the results, in another mix than the full data. Where no call is shown, the source filed none.

Chain of UniProt P14416 (P14416 whole entry, looked up): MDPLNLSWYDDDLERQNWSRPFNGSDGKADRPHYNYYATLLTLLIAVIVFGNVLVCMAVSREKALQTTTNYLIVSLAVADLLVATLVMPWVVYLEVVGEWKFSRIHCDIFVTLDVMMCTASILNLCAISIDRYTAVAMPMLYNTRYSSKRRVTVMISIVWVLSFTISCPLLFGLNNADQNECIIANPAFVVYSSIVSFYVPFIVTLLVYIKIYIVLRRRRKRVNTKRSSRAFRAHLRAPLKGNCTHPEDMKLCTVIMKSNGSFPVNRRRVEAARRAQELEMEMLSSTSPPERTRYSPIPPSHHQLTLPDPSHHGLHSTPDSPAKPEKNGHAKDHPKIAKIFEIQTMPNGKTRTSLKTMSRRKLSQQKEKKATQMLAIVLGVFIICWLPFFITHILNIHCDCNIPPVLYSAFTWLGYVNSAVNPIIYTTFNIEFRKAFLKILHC

The target in this assay is D(2) dopamine receptor (Homo sapiens) (UniProt P14416). As to the kind of experiment: HTS Assay for Allosteric Antagonists of the Human D2 Dopamine Receptor: Primary Screen for Antagonists. Note: 0% is about no effect. Particulars: HEK293 TREx D2 cells, calcium flux, dopamine EC80; at 10 µM; stronger effect = higher value. The procedure, abridged:
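Antagonism is scored as inhibition of an EC80 dopamine-evoked calcium signal in a force-coupled, tetracycline-inducible HEK293 T-REx D2 line, with compound present 180 s before agonist.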
(In general: Calcium flux is commonly read through the fluorescence of an indicator in the cells.)
Turning to `O=C(CSc1nccn1Cc1ccco1)Nc1ccc(F)cc1`, the inhibition was -17.9%.
On to `COc1ccc(CNC(=O)CSc2nc3ccccc3nc2Cc2ccccc2)cc1`, for which the inhibition turned out to be 11.3%.
The same measure for `Cn1c(CCN2CCN(c3ccccn3)CC2)nc2cc(NC(=O)COc3ccccc3)ccc21`: active: 47%; for `CCOC(=O)c1[nH]c(C)c(CCC(=O)NCc2ccc(N(C)C)cc2)c1C`: -4.76%.
The same measure for `COc1ccc(Cn2c(CCC(=O)NCc3cccc(Cl)c3)nc3cccnc32)cc1`: 9.36%; for `COc1cccc(/C=C/c2nc(C#N)c(NCCN(C)C)o2)c1`: 1.92%; for `COc1ccc(S(=O)(=O)NCCc2cc3ccc(C)c(C)c3[nH]c2=O)cc1`: -8.29%.
The same measure for `Cn1c(=O)c2c(-c3ccc(Cl)cc3)n(Cc3ccccc3)cc2n(C)c1=O`: -12.2%; for `Nc1cc(N)nc(SCCc2ccccc2)n1`: active: 47.1%; for `O=C(O)Cn1nnc(-c2ccc(OCc3cccc(C(F)(F)F)c3)cc2)n1`: -0.0041%.
For `COc1ccc(Cl)cc1NS(=O)(=O)c1ccc2[nH]c3c(c2c1)CCCC3`, the inhibition was -5.97%.
As to `Cc1ccc(Cl)cc1-n1c(=O)cc(N2CCN(c3ccc(F)cc3)CC2)[nH]c1=O`, the inhibition was determined as 13.4%.
The result for `Cc1ccc(-c2nc3sc(CCNS(=O)(=O)c4cc(F)ccc4F)c(C)n3n2)cc1` reads 5.53%; that for `CCn1cnc2sc(C(=O)N(Cc3ccc(N(C)C)cc3)Cc3ccco3)c(C)c2c1=O`, active: 31.6%; that for `CC(=O)N(Cc1cccnc1)c1nc2c(F)cc(F)cc2s1`, -17.2%.
The same measure for `COc1ccc(OC)c(NC(=O)Cn2cnc3ccc(S(=O)(=O)N4CCC(C)CC4)cc3c2=O)c1`: -7.06%; for `O=C(Nc1cc(-c2nc3ccccc3s2)ccc1Cl)c1cc2ccccc2o1`: -5.93%; for `COc1ccc(CN2CC(C(=O)NCCN3CCN(c4ccccc4F)CC3)CC2=O)cc1` (configuration not stated): active: 78.4%.
The same measure for `CCCOc1cccc(NC(=O)c2c(-c3ccccc3Cl)noc2C)c1`: 10.4%.
For the compound `CN(C(=O)CSc1nc2ccc(NC(=O)COc3ccc(Cl)cc3)cc2s1)c1ccccc1`, the inhibition is 4.72%.
Consider `O=S(=O)(Nc1ccccc1C(F)(F)F)c1ccc(N2CCCCS2(=O)=O)cc1`, for which the inhibition was -18.8%.
The same measure for `COc1cc(/C=C/c2nc(C#N)c(N3CCCCCC3)o2)cc(OC)c1OC`: -12.7%; for `CCOc1ccccc1NC(=O)CSc1nc(=O)[nH]c2c1CCCC2`: -17.1%.
The same measure for `O=C(CS(=O)(=O)c1cccc2nsnc12)Nc1ccccc1`: 20.9%; for `COc1ccccc1CNC(=O)CN1C(=O)COc2ccc(S(=O)(=O)Nc3ccccc3)cc21`: 9.33%; for `CC(C)(C)c1ccc(C(=O)NCCc2csc3nc(-c4ccccc4F)nn23)cc1`: -15%.
The same measure for `COc1ccc(C2CC(=O)NC(NC(=O)c3ccc(Br)cc3)=N2)c(OC)c1OC` (configuration not stated): 6.31%; for `CSCCC(NS(=O)(=O)c1ccc2c(c1)oc(=O)n2C)C(=O)N1CCN(c2cc(C)ccc2C)CC1` (configuration not stated): 10.4%.
As to `CCN(CC)S(=O)(=O)c1cccc(C(=O)NCC2(N3CCOCC3)CCCCC2)c1`, the inhibition was active: 39.1%.
For `Cn1c(=O)n(C)c2cc(NS(=O)(=O)c3ccc(F)cc3)ccc21`, the inhibition is -19%.
The same measure for `COc1cccc(C(=O)Nc2ccc3nc(SCC(=O)N4CCOCC4)sc3c2)c1`: 10.9%; for `CCCCS(=O)(=O)c1oc(-c2cccs2)nc1S(=O)(=O)c1ccccc1`: 12.9%; for `Cc1cc(C)n2c(Nc3ccc(Cl)cc3)c(-c3ccsc3)nc2n1`: -23.9%.
On to `Cc1ccc2c(CN3CCN(C(=O)c4ccc(F)cc4)CC3)cc(=O)oc2c1`, for which the inhibition was 14.6%.
In the case of `Cc1ccc(OCC(=O)N(c2ccc(C)cc2)S(=O)(=O)c2ccc(Cl)cc2)cc1`, the inhibition was 1.92%.
As for `COc1ccc(NC(=O)CSc2oc(-c3cccs3)nc2S(=O)(=O)c2ccc(C)cc2)c(OC)c1`, the inhibition was 5.69%.
The same measure for `CCOc1ccccc1NC(=O)c1cc(=O)c2ccc(C)cc2o1`: -1.72%; for `CCSc1nc(-c2ccccc2OC)nc2c1Cc1c(CO)cnc(C)c1O2`: 21.1%; for `CCOC(=O)c1c(C)oc2ncnc(N3CCN(c4ccccc4F)CC3)c12`: -16.2%.
The same measure for `O=C(Cc1cccs1)NC1CC(=O)N(c2cccc(F)c2)C1` (configuration not stated): -2.98%; for `O=C(/C=C\c1ccc2c(c1)OCO2)NC1CC(=O)N(c2ccc(Cl)cc2)C1` (configuration not stated): 4.29%.
The result for `COc1ccc(C2(Nc3cccc(C(=O)O)c3C)C(=O)c3ccccc3C2=O)cc1` reads 5.98%; that for `COc1ccc(-c2csc3nc(-c4ccccc4C)oc(=O)c23)cc1OC`, 1.69%; that for `Cc1ccc(NC(=O)C2CCN(S(=O)(=O)c3c(C)noc3C)CC2)c(C)c1`, -8.19%.
Turning to `CC(=O)N1CCOc2cc(S(=O)(=O)NCc3ccc(C)cc3)c(Cl)cc21`, the inhibition was -10.7%.
The result for `COc1cccc(-n2cc(C(=O)NCCc3ccc(C)cc3)c3ccccc3c2=O)c1` reads 3.77%; that for `COc1ccc2oc(=O)c(-c3csc(-c4ccc(Br)cc4)n3)cc2c1`, -19.4%; that for `Cc1c(C)c2c(cc(C)c3c(-c4ccccc4)coc32)oc1=O`, -23%.
With `O=C(NC1CC(=O)N(c2cccc(F)c2)C1)C1CCCC1` (configuration not stated), the inhibition is -26.7%.
The same measure for `Cc1ccc(CNC(=O)c2cccn2-c2nnc(N3CCCCC3)s2)cc1`: 3.99%; for `COc1ccccc1-n1ncc2c(=O)[nH]c(SCC(=O)Nc3ccc(Cl)cc3)nc21`: -1.12%.
The result for `O=C(Nc1cc2c(cc1C(=O)c1ccccc1)OCCO2)c1ccc(Br)cc1` reads 23.3%; that for `CN(C)CCN(Cc1ccccc1)S(=O)(=O)c1ccc2[nH]c(=O)ccc2c1`, 8.37%.
On to `O=C(Nc1cccc(S(=O)(=O)C(F)F)c1)c1ccc(S(=O)(=O)N2CCCC2)cc1`, for which the inhibition is active: 58.5%.
The same measure for `O=C(c1cccn1-c1nnc(N2CCCC2)s1)N1CCN(c2ccccc2)CC1`: 2.56%; for `O=S(=O)(NCc1ccc(F)cc1)c1ccc(-c2cnc(C3CC3)o2)cc1`: 7.26%; for `Cc1ccc(C(=O)c2cn(CC(=O)NC3CCCCC3)c3nc(C)ccc3c2=O)cc1`: -5.55%.
The result for `Cc1c(C(=O)N2CCCC2)oc2c1-c1nn(CC(=O)NCCCOC(C)C)cc1CC2` reads -9.86% and active: 34.6%; that for `COc1cccc(C(=O)Nc2ccccc2C(=O)OCc2cc(=O)n3nc(C4CC4)sc3n2)c1`, -16%; that for `COc1cc(OC)c2ccc(=O)oc2c1C(CCN1CCN(c2ccccc2)CC1)c1ccc(N(C)C)cc1` (configuration not stated), active: 61.6%.
The same measure for `CCN(CC)CCCNC(=O)CN1C(=O)CCn2nc(-c3cn(C)c4ccccc34)cc21`: -4.57%; for `COc1ccc(-c2nc3c4ccccc4n(CC(=O)N4CCN(c5ccccc5OC)CC4)c(=O)n3n2)cc1`: -15.8%; for `COc1ccc(CCNC(=O)c2ccc3c(c2)c(C)c(C)n3Cc2ccc(F)cc2)c(OC)c1OC`: 8.78%.
Consider `Cc1ccc2nc(-c3ccccc3F)c(Nc3ccc(Cl)cc3)n2c1`, for which the inhibition stood at 19.5%.
The result for `COc1cccc(-n2c(=O)c3c4c(sc3n(Cc3ccc(C)cc3)c2=O)CCCC4)c1` reads -20.9%; that for `COc1ccc(-c2nc(CSCC(=O)N3CCN(c4cccc(C)c4C)CC3)c(C)o2)cc1OC`, 9.06%; that for `CC1CCC(NC(=O)c2ccc3c(c2)N(Cc2cccc(Cl)c2)C(=O)c2ccccc2S3(=O)=O)CC1` (configuration not stated), -6.61%.
The result for `CCCn1c(=O)sc2cc(NC(=O)COc3ccc(Cl)cc3)ccc21` reads 15.8%; that for `CCc1ccccc1NC(=O)Cn1nnc(C(=O)NCc2ccccc2Cl)c1N`, -5.56%; that for `COc1cccc(CN(C(=O)c2oc3cc(C)ccc3c2C)C2CCS(=O)(=O)C2)c1` (configuration not stated), -6.35%.
The same measure for `CCN(CC)CC(C)CNC(=O)c1cc(-c2ccc(Br)s2)nc2ccccc12` (configuration not stated): -9.23%; for `CCOC(=O)c1ccc(NS(=O)(=O)c2ccc3c(c2)n(C)c(=O)n3C)cc1`: 5.64%.
As for `CCCCNC(=O)c1nn(-c2ccc(CC)cc2)nc1CO`, the inhibition was -12.2%.
The result for `Cc1cccc(NC(=O)C2CCN(S(=O)(=O)c3ccc(F)cc3)CC2)c1C` reads -3.32%; that for `CNCCC=C1c2ccccc2CCc2ccccc21`, active: 42.3%; that for `COc1cc(CN(C(=O)COc2ccc(C)cc2)c2ccccn2)cc(OC)c1OC`, 12.7%.
The result for `COc1ccc(C(=O)N2CCN(Cc3cc(=O)n4nc(-c5ccccc5C)sc4n3)CC2)cc1OC` reads -1.5%.
The same measure for `CCOc1ccc(NC(=O)C2CC(=O)N(c3ccc(C(C)C)cc3)C2)cc1` (configuration not stated): -4.31%; for `COc1ccc(C)cc1NC(=O)c1ccc2c(SCC(=O)O)c3c(nc2c1)CCCC3`: -10.1%; for `Cn1c(=O)n(-c2ccc3c(c2)OCO3)c2nc(-c3ccccc3)nc(C(N)=O)c21`: 2.98%.
Regarding `COc1ccc(NC(=O)c2sc3nc[nH]c(=O)c3c2C)cc1Cl`, the inhibition is -26%.
The result for `CCCC1=Nc2cc(C(=O)NC3CCCC3)ccc2Sc2ccc(C)cc21` reads 12.2%.
Regarding `Cc1cc(C)cc(NC(=O)CSc2cc(C)[nH]c(=O)n2)c1`, the inhibition was -5.44%.
The result for `CCOC(=O)CC(NC(=O)Cn1nnc(-c2ccc(C(F)(F)F)cc2)n1)c1ccc(OC)cc1` (configuration not stated) reads -15.5%; that for `O=C(NCc1ccc(F)cc1)c1ccc(Nc2nc3ccccc3n3nnnc23)cc1`, 18.7%; that for `COc1ccccc1N1CCN(c2cc(C)nc3nc(-c4ccc(C)cc4)nn23)CC1`, -11.6%.
The same measure for `Cc1c(C(=O)Nc2ccccc2F)sc2ncnc(N(C)C3CCCCC3)c12`: 5.77%; for `Cc1cccc(CCNC(=O)CCc2c(C)nc3c4c(C)cc(C)nc4nn3c2C)c1`: 12.7%.
The result for `COc1ccc(CNC(=O)Cn2ncc3c([nH]c4ccccc43)c2=O)cc1` reads -7.66%; that for `CCc1cccc(C)c1NC(=O)Cn1c(=O)cc(C)c2c(C)nn(-c3cccc(F)c3)c21`, 2.54%.
As for `Cc1nn(-c2ccc(N3CCCC3)nn2)c(C)c1CCC(=O)Nc1ccc(F)cc1F`, the inhibition was 8.84%.
On to `N=c1c(C(=O)NCC2CCCO2)cc2c(=O)n3ccccc3nc2n1Cc1ccc(Cl)cc1` (configuration not stated), for which the inhibition is active: 55.3%.
The result for `Cc1cc2oc3c(c(=O)c2cc1C)C1(C(=O)N(C)c2ccccc21)N(CCO)C3=O` (configuration not stated) reads 9.38%; that for `CCn1c(CNC(=O)c2ccc(OC)cc2)nnc1SCC(=O)Nc1ccc(C)cc1`, 13.4%.
The result for `Nc1cc(=O)nc(SCC(=O)Nc2ccc(F)cc2)n1CCc1ccccc1` reads -14%; that for `CCCn1cnc2c(=O)oc3ccccc3c21`, active: 38.9%; that for `O=C(Nc1ccccc1Br)C(Cc1ccccc1)NS(=O)(=O)c1cccc2nsnc12` (configuration not stated), -6.13%.

Usually inhibition stands for the relative decrease from the control value, in per cent.
